Reference: publication PMC13278974, “Nucleophagy removes cytotoxic trapped PARP1” (Nature Cell Biology, 2026)
Results are given in words; binding and its absence hold for the method and conditions named. For part of these data: Binding seen in cells or lysates may run through a third protein. Some results given as binding are weak or reduced against the parent protein; the word gives no strength.

Chains of the proteins cited; added tags and fusions are not shown. Lines headed by an entry give the natural chain unless they say otherwise; changes in a name come on top.
UniProt P09874: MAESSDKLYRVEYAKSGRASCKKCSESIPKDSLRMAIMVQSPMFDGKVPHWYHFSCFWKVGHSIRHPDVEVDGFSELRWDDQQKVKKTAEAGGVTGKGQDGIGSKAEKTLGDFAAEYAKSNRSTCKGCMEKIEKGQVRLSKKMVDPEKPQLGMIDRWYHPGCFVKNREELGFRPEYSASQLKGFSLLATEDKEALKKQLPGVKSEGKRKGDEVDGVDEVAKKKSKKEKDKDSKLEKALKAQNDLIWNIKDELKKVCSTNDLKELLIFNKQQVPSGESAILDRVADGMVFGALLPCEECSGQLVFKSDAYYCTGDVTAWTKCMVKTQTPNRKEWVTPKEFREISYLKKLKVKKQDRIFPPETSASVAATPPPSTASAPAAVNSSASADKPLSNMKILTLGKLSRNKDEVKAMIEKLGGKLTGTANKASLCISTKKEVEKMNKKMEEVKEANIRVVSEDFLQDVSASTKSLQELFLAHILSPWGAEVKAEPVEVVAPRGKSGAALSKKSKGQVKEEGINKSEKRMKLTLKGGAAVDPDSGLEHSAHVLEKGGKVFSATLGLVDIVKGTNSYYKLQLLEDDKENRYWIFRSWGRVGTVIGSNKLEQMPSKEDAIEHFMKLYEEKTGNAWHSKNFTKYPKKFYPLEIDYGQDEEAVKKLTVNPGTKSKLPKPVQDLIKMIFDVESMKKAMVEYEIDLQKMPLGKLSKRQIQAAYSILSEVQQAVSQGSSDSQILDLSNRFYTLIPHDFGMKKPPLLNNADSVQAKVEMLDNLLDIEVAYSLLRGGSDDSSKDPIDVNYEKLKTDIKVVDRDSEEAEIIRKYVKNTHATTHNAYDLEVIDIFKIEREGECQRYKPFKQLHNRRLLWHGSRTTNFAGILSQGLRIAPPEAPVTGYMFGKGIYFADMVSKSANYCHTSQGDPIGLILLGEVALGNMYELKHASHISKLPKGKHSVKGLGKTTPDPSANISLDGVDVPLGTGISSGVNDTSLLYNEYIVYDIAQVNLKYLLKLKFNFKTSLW
UniProt Q9Y6I9: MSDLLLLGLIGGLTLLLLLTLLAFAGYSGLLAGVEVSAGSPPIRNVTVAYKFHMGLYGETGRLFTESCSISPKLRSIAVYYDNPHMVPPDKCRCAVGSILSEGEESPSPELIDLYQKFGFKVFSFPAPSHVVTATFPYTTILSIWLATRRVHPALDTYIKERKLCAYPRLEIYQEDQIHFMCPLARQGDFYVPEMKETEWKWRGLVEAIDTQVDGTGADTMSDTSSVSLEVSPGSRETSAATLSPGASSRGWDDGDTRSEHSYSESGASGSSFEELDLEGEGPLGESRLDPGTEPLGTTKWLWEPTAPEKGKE

How the values were obtained:
[1] = biological target: T1, His–PARP1, full length, recombinant (called GFP-PARP1 / PARP1–GFP in the results and legend) (UniProt P09874 1-1014); assay: pull-down; PARP1 (2.5 µM) held on PARP1-trap beads, TEX264 (2.5 µM) added in 50 mM HEPES pH 7.4, 500 mM NaCl, 0.01% Triton X-100, 1 mM TCEP, 2 h at 4 °C; washes with 0.1% Triton X-100; western blot; both purified
T1 construct: PARP1, full length, cloned into NcoI and BamHI sites of pNIC28; The methods describe only His–PARP1 from pNIC28 with no GFP; Whether GFP was on the protein is open; It was held on PARP1-trap beads; also called pNIC28–PARP1; source: E. coli Rosetta (DE3), purified (HisTrap, SEC Superdex 200)

[2] = biological target: PARP1–GFP (PARP1^WT–GFP) stably expressed in CAL51 cells (UniProt P09874); assay: co-IP; PARP1–GFP captured on GFP-trap beads from the Benzonase-solubilised chromatin fraction of CAL51 cells, with 50 µg/ml ethidium bromide; cells untreated or treated with talazoparib (200 nM) and MMS (0.01%) for 3 h, with control siRNA or siTEX264; washes with 150 mM NaCl, 0.05% Triton X-100
[3] = biological target: PARP1–GFP stably expressed in HeLa cells (UniProt P09874); assay: co-IP; PARP1–GFP captured on GFP-trap beads from the chromatin fraction of HeLa cells expressing TEX264 variants, after talazoparib and MMS for 3 h
[4] = biological target: PARP1–GFP (PARP1^WT–GFP) stably expressed in CAL51 cells (UniProt P09874); assay: proximity ligation; PLA between GFP and V5 in fixed CAL51 cells stably expressing PARP1–GFP and TEX264–V5, untreated or talazoparib for 3 h

Row | binding [2] | binding [3] | Substance | other results
1 |  |  | His–TEX264-GyrI (34-185) (from UniProt Q9Y6I9 34-185) (domain or fragment) | binding [1]: no binding (tested: 2.5 µM)
2 | binds |  | TEX264, endogenous in CAL51 cells (from UniProt Q9Y6I9 1-313) | 
3 |  | binds | TEX264^WT–V5 expressed in HeLa cells (from UniProt Q9Y6I9 1-313) | 
4 |  | no binding | TEX264–272 (TEX264 lacking the C terminus from S272 onwards) (from UniProt Q9Y6I9 1-271) (domain or fragment) | 
5 |  |  | TEX264–V5 stably expressed in CAL51 PARP1–GFP cells (from UniProt Q9Y6I9 1-313) | binding [4]: binds
6 | binds |  | p97, endogenous in CAL51 cells (from UniProt P55072 1-806) (enzyme) | 
